From PubChem BioAssay AID938 (National Center for Advancing Translational Sciences (NCATS), 2007)
Hit rate of the full screen: of about 73,000 compounds, about 1,800 (2.5%) were called active. Inconclusive means that the source gave no clear call. Such entries were picked first, then a sample of the others. Calls come from the whole dose curve; as a rule, active = well fitted activation curve with a large enough effect; inconclusive = small, poorly fitted or top-dose-only effect; inactive = no such curve, though single readings can be large or run the other way. No potency is given beside an inconclusive call; the fits are too rough.

assay: qHTS Assay for Agonists of the Thyroid Stimulating Hormone Receptor: Activators of Intracellular cAMP Concentrations in Parental HEK 293; conditions: parental HEK293 CNG cAMP sensor, membrane potential fluorescence; activation: at 57.1 µM (top of the series) unless noted; note: nearly all actives have a fitted effect of over 55% in size; for activation: % of control where 0% means no effect
Description: NIH Chemical Genomics Center [NCGC]
NIH Molecular Libraries Screening Centers Network [MLSCN]
PI Name: Dr. Marvin Gershengorn
This cell based assay utilized a cyclic nucleotide gated ion channel (CNG) as a biosensor for cAMP induction. HEK 293 cells stably expressing the modified CNG were purchased from BD biosciences (http://www.atto.com/products/actone/features_benefits.shtml) . Stimulation of cAMP production causes the CNG to open and subsequent membrane depolarization to occur. A fluorescent membrane potential dye (BD biosciences) was utilized to detect cAMP stimulation in cells.
The cells were maintained in DMEM medium (Invitrogen) containing 10 % FBS (Hyclone), 100 units/ml Penicillin, 100 ug/ml Streptomycin (Invitrogen), and 250 ug/ml Geneticin (Invitrogen) and 1 ug/ml Puromycin (Invitrogen) at 37C in 5% CO2. This assay was used as a counterscreen to "qHTS Assay for Agonists of the Thyroid Stimulating Hormone Receptor", to control for compounds signaling through endogenous receptors and other targets of HEK 293 cells.
NCGC Assay Protocol Summary:
High Throughput Screening. Freshly passaged cells were dispensed into 1536-well assay plates at 4 ul/well in DMEM containing phenol red (Invitrogen), 10% FCS (Hyclone), and 100 units/ml Penicillin, 100 ug/ml Streptomycin (Invitrogen) and incubated at 37 C with 5% CO2 for 20 to 36 hrs before the robotic screening. The screen was initiated by addition of 4 ul/well membrane potential dye containing 100 uM RO 20-1724 (Sigma Aldrich), followed by 60 min incubation at room temperature to allow for dye equilibration across the cell membrane. 23 nl/well compound or control was then added to the assay plates, which were incubated for additional 30 min before reading a Envision fluorescence plate reader (Perkin Elmer) in bottom-read mode for fluorescence intensity (emission at 590 nm).
Keywords: cAMP, CNG Ion Channel, quantitative high throughput screening, qHTS, HTS, probe identification, CNG, cAMP, cyclic nucleotide gated ion channel PubChem
Potency is the fitted concentration of half-maximal effect; tags give direction and shape of the fitted curve.

**Q.** For `CCCc1c(OCCCOc2ccc(OCC(=O)O)cc2)ccc(CC=O)c1O`, which Potency is on record?
**A.** inconclusive [activator, single point]

**Q.** With `c1ccc(Nc2nc(-c3ccc4c(c3)OCO4)nc3ccccc23)cc1` as the compound, how does the “activation” value read?
**A.** inactive: 4.97%

**Q.** For `N#CC1=C(N)OC2=C(C(=O)CCC2)C12CCN(C(=O)OCc1ccccc1)CC2`, which “activation” value is on record?
**A.** inactive: 4.45%

**Q.** With `CCn1c(-c2ccc(F)cc2)n[nH]c1=S` as the compound, how does the Potency read?
**A.** inconclusive [activator, full curve]

**Q.** For `Cc1ccccc1-c1cncnc1N1CCNCC1`, which Potency is on record?
**A.** inconclusive [activator, single point]

**Q.** With `O=C(CSCc1cccc(F)c1)N1CCN(c2ccccc2)CC1` as the compound, how does the Potency read?
**A.** active: 31.6 µM

**Q.** For `COc1cccc(Cn2c(=O)c(-c3cc(F)cc(F)c3)nc3cnc(N4CCNCC4)nc32)c1`, which “activation” value is on record?
**A.** inactive: 10.8%

**Q.** With `O=C(c1c[nH]c2ccc(S(=O)(=O)N3CCC4(CC3)OCCO4)cc2c1=O)N1CCOCC1` as the compound, how does the Potency read?
**A.** inconclusive [activator, single point]

**Q.** With `Cc1ccc(-c2ccc(=O)n(CC(=O)N3CCN(c4cccc(C)c4)C(C)C3)n2)cc1` (centres undefined) as the compound, how does the Potency read?
**A.** inconclusive [activator, single point]

**Q.** For `CCCCOC(=O)Cn1c(=N)n(CCN2CCOCC2)c2ccccc21`, which Potency is on record?
**A.** inconclusive [activator, full curve, poor fit]

**Q.** Which Potency does the source give for `O=C(CSc1nnc(-c2cccs2)n1-c1ccccc1)Nc1ccccc1` here?
**A.** inconclusive [activator, partial curve, poor fit]

**Q.** Which “activation” value does the source give for `O=c1c(-c2cc(F)cc(F)c2)nc2cnc(N3CCOCC3)nc2n1C1CC1` here?
**A.** inactive: 18.4%

**Q.** Which Potency does the source give for `CC(=O)c1ccc(Cc2cnc(N)s2)cc1` here?
**A.** inconclusive [activator, single point]

**Q.** For `COc1ccccc1-c1nnc(SCC(=O)NC2CCCCC2)o1`, which “activation” value is on record?
**A.** inactive: 2.2%

**Q.** Which Potency does the source give for `O=C(Nc1nc2ccccc2n1CCOc1ccc(Cl)cc1)c1ccco1` here?
**A.** active: 25.1 µM

**Q.** Which Potency does the source give for `COC(=O)C1=C(C)NC(=O)C1(Nc1ccc(Cl)cn1)C(F)(F)F` (centres undefined) here?
**A.** inconclusive [activator, single point]

**Q.** With `COc1cc(-c2nnc(-c3ccco3)o2)ccc1OCc1ccccc1` as the compound, how does the Potency read?
**A.** inconclusive [activator, single point]

**Q.** For `Cc1ccc(CCNC(=O)C2CCN(S(=O)(=O)c3cccc4nonc34)CC2)cc1`, which “activation” value is on record?
**A.** inactive: 5.17%

**Q.** With `S=C(c1ccc(-c2cc(Cl)ccc2Cl)o1)N1CCOCC1` as the compound, how does the “activation” value read?
**A.** inactive: 26.6%

**Q.** For `Cc1onc(-c2c(F)cccc2Cl)c1C(=O)N1CCCc2ccccc21`, which Potency is on record?
**A.** inconclusive [activator, full curve, poor fit]

**Q.** For `C=C1CC[C@@H]2O[C@]2(C)CC[C@@H]2[C@H]1CC2(C)C`, which “activation” value is on record?
**A.** inactive: 12.3%

**Q.** For `O=C(CSc1nnc(CCCO)n1-c1ccccc1)Nc1nccs1`, which Potency is on record?
**A.** inconclusive [activator, single point]

**Q.** For `COc1cc(NC(=O)c2c(-c3ccccc3Cl)noc2C)c2ncccc2c1`, which Potency is on record?
**A.** inconclusive [activator, single point]

**Q.** For `CCOc1cc(NC(=O)c2ccco2)c(OCC)cc1NC(=O)COc1ccccc1C`, which “activation” value is on record?
**A.** inactive: 1.12%

**Q.** Which Potency does the source give for `CCOC(=O)N1CCN(C(=O)c2nn(-c3cc(OC)cc(OC)c3)c(=O)c3ccccc23)CC1` here?
**A.** inconclusive [activator, single point]

**Q.** Which Potency does the source give for `O=C(NCC(=O)N(Cc1cccs1)C(C(=O)NC1CCCC1)c1ccco1)c1cccs1` (centres undefined) here?
**A.** inconclusive [activator, partial curve]

**Q.** Which Potency does the source give for `Cn1c2c(c3ccccc31)CCSC2=O` here?
**A.** inconclusive [activator, single point]

**Q.** Which Potency does the source give for `CCOC(=O)c1ccc(NC(=O)CCc2nc(-c3ccccc3Cl)no2)cc1` here?
**A.** inconclusive [activator, single point]

**Q.** With `Cc1cc(NC(=O)CSc2nc3sc4c(c3c(=O)n2C)CCCC4)no1` as the compound, how does the “activation” value read?
**A.** inactive: -8.98%

**Q.** For `COc1ccccc1Nc1ccc(C(=O)NC2CCCCC2)cn1`, which Potency is on record?
**A.** inconclusive [activator, full curve, poor fit]

**Q.** With `CCOC(=O)C(C)Oc1cccc2c(=O)n(CC(=O)Nc3ccc4c(c3)OCCO4)ccc12` (centres undefined) as the compound, how does the Potency read?
**A.** inconclusive [activator, single point]

**Q.** For `Cc1nc(SCC#N)c2c3c(sc2n1)CCC3`, which Potency is on record?
**A.** inconclusive [activator, partial curve]

**Q.** With `Cc1ccc(CNC(=O)C2CNc3cc(C)ccc3O2)cc1` (centres undefined) as the compound, how does the “activation” value read?
**A.** inactive: 1.17%

**Q.** For `Cc1ccc(NC(=O)C2CCCN(S(=O)(=O)c3c(C)noc3C)C2)c(C)c1` (centres undefined), which Potency is on record?
**A.** inconclusive [activator, single point]

**Q.** With `CC(C)(C)CC(C)(C)c1ccc(OCCOCC[N+](C)(C)Cc2ccccc2)cc1` as the compound, how does the Potency read?
**A.** inconclusive [activator, single point]

**Q.** With `COc1ccc(CCC(=O)c2c(O)cc(O[C@@H]3O[C@H](CO)[C@@H](O)[C@H](O)[C@H]3O[C@@H]3O[C@@H](C)[C@H](O)[C@@H](O)[C@H]3O)cc2O)cc1O` as the compound, how does the activation read?
**A.** inconclusive: 35.9% [activator]

**Q.** Which Potency does the source give for `COc1ncnc2sc(-c3ccccc3)cc12` here?
**A.** inconclusive [activator, partial curve]

**Q.** For `COc1ccc(-c2nnc3ccc(SCC(=O)N4CCOCC4)nn23)cc1`, which Potency is on record?
**A.** inconclusive [activator, single point]

**Q.** With `CC#CCN(CC#CC)S(=O)(=O)c1ccc(-n2cnnn2)c(OC)c1` as the compound, how does the Potency read?
**A.** active: 12.6 µM

**Q.** Which activation does the source give for `CC(=O)O[C@H]1CC[C@@]2(C)C(=CC[C@@H]3[C@@H]4CC[C@H](c5cc(C(F)(F)F)n(C(C)=O)n5)[C@]4(C)CC[C@@H]32)C1` here?
**A.** inactive: 8.87% [at 11.4 µM]

**Q.** With `Cc1cc(C(=O)Nc2c(C)n(C)n(-c3ccccc3)c2=O)cs1` as the compound, how does the Potency read?
**A.** inconclusive [activator, single point]

**Q.** For `Cn1c(=O)c2c(n(C)c1=O)=NC1(CCCCC1)ON=2`, which Potency is on record?
**A.** inconclusive [activator, single point]

**Q.** With `O=C(O)c1sccc1S(=O)(=O)Nc1ccc(Cl)cc1` as the compound, how does the Potency read?
**A.** inconclusive [activator, single point]

**Q.** For `COc1ccccc1-c1nccc(NCc2cccs2)n1`, which Potency is on record?
**A.** inconclusive [activator, partial curve]
